# Measured values: PubChem BioAssay AID686978 (National Center for Advancing Translational Sciences (NCATS), 2013)
# The whole screen tested about 420,000 compounds, of which about 64,000 (15%) were called active. The shares of active, inactive and inconclusive entries below differ from those in the screen. Calls come from the whole dose curve; as a rule, active = well fitted inhibition curve with a large enough effect; inconclusive = small, poorly fitted or top-dose-only effect; inactive = flat fitted curve, though single readings scatter. Potencies of inconclusive entries are left out as doubtful fits.
# Assay: qHTS for Inhibitors of human tyrosyl-DNA phosphodiesterase 1 (TDP1): qHTS in cells in absence of CPT; note: nearly all actives have a fitted effect of over 55% in size
# Conditions: DT40 Tdp1-/- hTDP1 cells, no CPT, ATP luminescence, 48 h; activity change, negative = growth inhibition: at 46.2 µM (top of the series) unless noted
# Outline: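 Chicken DT40 Tdp1-/- cells complemented with human TDP1, screened without camptothecin (DMSO vehicle only), 400 cells/well. Compounds pin-transferred, cells incubated at 37 °C for at least 48 hr. Growth read as ATP-dependent luminescence (CellTiter-Glo, 30 min at RT).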
# % is set by controls: 0 for no effect and ±100 for the full control effect; potency is the fitted concentration of half-maximal effect; tags give direction and shape of the fitted curve.
SMILES,Potency,"activity change, negative = growth inhibition"
Cc1ccc(CNC(=O)CCS(=O)(=O)c2cc3c(cc2Cl)NC(=O)CO3)cc1,"inconclusive [inhibitor, single point]",–
CC(=O)N1C(=O)C2(C(C#N)=C(N)Oc3c2c(C)nn3-c2ccccc2)c2ccccc21 (configuration not stated),"inconclusive [inhibitor, single point]",–
O=C(NNC(=O)c1cc(-c2ccccc2)nn1-c1ccccc1)c1ccccc1,"inconclusive [inhibitor, partial curve]",–
CS(=O)(=O)N(CC(=O)N1CCCCCC1)c1cccc(F)c1,–,inactive: 6.92%
Cc1ccc(C(=O)OC(C)C(=O)NC(C)CCc2ccccc2)o1 (configuration not stated),–,inactive: -24.6%
COC(=O)C1=C(N)OC2=C(C(=O)CCC2)C1c1cccs1 (configuration not stated),–,inactive: -18.6%
O=C(N/N=C/c1ccc2c(c1)OCO2)c1ccccn1,"inconclusive [inhibitor, partial curve]",–
O=C(O)CCC(=O)N1CCN(S(=O)(=O)c2ccc3ccccc3c2)CC1,"inconclusive [inhibitor, full curve, poor fit]",–
Cc1ccc(NC(=O)CSc2nnc(C)c(=O)n2N)cc1Cl,–,inactive: 0.408%
O=C(Nc1ccccc1)N(CCCN1CCOCC1)Cc1cc2cc3c(cc2[nH]c1=O)OCCO3,active: 10.3 µM,–
Fc1ccc(N2CCN(c3cnc4ccccc4n3)CC2)cc1,–,inactive: -13.9%
CSc1ccccc1NC(=O)CN(C)CC(=O)Nc1ccc(Cl)cc1[N+](=O)[O-],"inconclusive [inhibitor, partial curve]",–
O=C(O)CCc1ccc2ccccc2c1,–,inactive: -26.9%
C[C@@H]1CN([C@@H](C)CO)C(=O)CCCn2cc(nn2)CO[C@H]1CN(C)S(=O)(=O)c1ccc(Cl)cc1,–,inactive: -24.6%
Cc1ccccc1OCC(=O)NCCS(=O)(=O)N1CCN(c2ccc(F)cc2)CC1,"inconclusive [inhibitor, partial curve]",–
CCOC(=O)CN(Cc1ccccc1)C(C(=O)NC1CCCCC1)c1ccc(C)cc1 (configuration not stated),"inconclusive [inhibitor, single point]",–
O=C(CCc1nnc(-c2ccc3c(c2)OCO3)o1)N1CCC(c2ccc(F)cc2)C1 (configuration not stated),–,inactive: -32.5%
CCc1ccc(C(=O)N2CCN(c3ccc(NC(=O)c4ccco4)cc3)CC2)cc1,"inconclusive [inhibitor, single point]",–
O=C(c1cc(COc2ccc(F)cc2Cl)on1)N1CCCCCC1,"inconclusive [inhibitor, single point]",–
CCOC(=O)C1CCN(C(=O)Cn2c(-c3cccs3)cc3cc(Cl)ccc32)CC1,active: 20.6 µM,–
CCC(=O)N1CCc2cc(S(=O)(=O)NC(C(=O)NCc3ccccc3Cl)C(C)C)ccc21 (configuration not stated),–,inactive: -6.1%
CCCN(C)C1CN(Cc2cn(CCCC(=O)OC)nn2)S(=O)(=O)C1 (configuration not stated),–,inactive: -9.51%
COc1ccc(CNC(=O)c2ccc(-c3nc(CSc4ccc(C)cc4)c(C)o3)cc2)cc1OC,–,inactive: -26.1%
CCN(CC)CCn1c(/N=C/c2cc(Br)ccc2O)nc2ccccc21,"inconclusive [inhibitor, single point]",–

SMILES,Potency,"activity change, negative = growth inhibition"
O=C(NCc1ccc(F)cc1)c1cc(Sc2ccc(F)cc2F)nc2ccccc12,"inconclusive [inhibitor, single point]",–
CC(C)c1cc(-c2n[nH]c(=S)n2Cc2ccccc2)cs1,"inconclusive [inhibitor, partial curve, poor fit]",–
CCOC(=O)C1CCN(c2ncnc3c(C)csc23)CC1,active: 13 µM,–
COc1ccc(CC(=O)N2CCC(CCC(=O)Nc3ccccc3)CC2)cc1,"inconclusive [inhibitor, single point]",–
Cc1c(C(=O)NCc2ccccc2Cl)sc2nc(-c3ccc(F)cc3)cn12,active: 16.4 µM,–
COc1cc(NC(=O)CSc2nc(C)c(C)c(C)n2)c(C)cc1[N+](=O)[O-],"inconclusive [inhibitor, single point]",–
CN(C)S(=O)(=O)n1cc(/C=C(\NC(=O)c2ccccc2Cl)C(=O)NCCCN2CCOCC2)c2ccccc21,"inconclusive [inhibitor, single point]",–
Nc1ncnc2c1ncn2COC(CO)CO,active: 0.708 µM,–
CCOC(=O)c1cc(S(=O)(=O)NC2CCN(C(=O)OCC)CC2)cn1C,"inconclusive [inhibitor, partial curve, poor fit]",–
COc1ccc(NC(=O)CCC(=O)Nc2cc(OC)c(NC(=O)c3cccs3)cc2OC)cc1,"inconclusive [inhibitor, single point]",–
COc1ccc(OC)c(CN2CCC3(CCC(CNC(=O)c4ccco4)O3)CC2)c1 (configuration not stated),–,inactive: -21%
O=C(COC(=O)c1cccnc1Cl)Nc1cc(S(=O)(=O)N2CCCCCC2)ccc1Cl,–,inactive: -20.2%
COC(=O)[C@H](Cc1ccccc1)NC(=O)N1Cc2ccccc2C[C@H]1C(=O)OC,"inconclusive [inhibitor, partial curve]",–
Cc1ccc(S(=O)(=O)c2nc(S(C)(=O)=O)sc2N2CCC3(CC2)OCCO3)cc1,"inconclusive [inhibitor, single point]",–
COc1cccc(/C=C/C(=O)OCC(=O)Nc2cccc(S(=O)(=O)N3CCCCC3)c2)c1OC,"inconclusive [inhibitor, partial curve]",–
Nn1c(SCc2cccc3ccccc23)nnc1-c1ccco1,–,inconclusive: -31.4% [inhibitor]
Cc1n[nH]c(=S)n1/N=C/c1ccc(Br)o1,"inconclusive [inhibitor, single point]",–
O=C(N/C(=C\c1cccc([N+](=O)[O-])c1)C(=O)N(CCO)CCO)c1ccco1,–,inactive: 1.49%
O=C1CC(N2CCC(Cc3ccccc3)CC2)C(=O)N1CCc1ccccc1 (configuration not stated),"inconclusive [inhibitor, single point]",–
CCOC(=O)CSc1nc(=O)n2cc(C)ccc2n1,–,inactive: -15.3%
Cc1nnnn1CC(=O)Nc1ccccc1[N+](=O)[O-],–,inactive: 0.903%
COCCCNC(=O)CN(c1cc(OC)ccc1OC)S(=O)(=O)c1ccccc1,–,inactive: -8.7%
CCC(C(=O)OCC(=O)Nc1ccc(F)cc1)c1ccccc1 (configuration not stated),–,inactive: -27.6%
O=c1[nH]c(-c2ccccc2)ncc1OCc1ccccc1,–,inactive: -21.6%

SMILES,Potency,"activity change, negative = growth inhibition"
COC(=O)c1c(NC(NC(=O)CC(C)C)C(Cl)(Cl)Cl)sc2c1CCC2 (configuration not stated),"inconclusive [inhibitor, single point]",–
CCOC(=O)c1cc(-c2cccnc2)nn1-c1ccccc1C,"inconclusive [inhibitor, single point]",–
CC(C)[C@@H]1Cc2[nH][nH]c(=O)c2[C@H](CCc2ccccc2)O1,"inconclusive [inhibitor, single point]",–
COc1ccc(C(=O)C[n+]2cccc3cc(Cl)ccc32)cc1,active: 15.8 µM,–
CN1CCN(C(=O)c2ccc(CSc3ccc(Cl)cc3)cc2)CC1,active: 23.1 µM,–
COc1ccccc1CNc1nc(NCCOc2ccccc2)c2sccc2n1,active: 5.8 µM,–
Cc1ncoc1C(=O)N1CCCC(C(=O)c2ccc(-c3ccccc3)c(F)c2)C1 (configuration not stated),"inconclusive [inhibitor, single point]",–
C=CC[C@H](CC(=O)N(CCO)Cc1ccccc1)C(=O)N[C@@H](COC(=O)[C@@H](CC=C)Cc1ccc(F)cc1)Cc1c[nH]c2ccccc12,active: 23.1 µM,–
COCCN(Cc1ccco1)C(=O)c1cc2c(Cl)nc3ccc(C)cc3c2s1,"inconclusive [inhibitor, full curve]",–
O=C(c1ccco1)N1CCN=C1SCc1ccccc1Cl,"inconclusive [inhibitor, partial curve]",–
COC(=O)c1ccc(COC(=O)Cc2n[nH]c(=O)c3ccccc23)cc1,"inconclusive [inhibitor, partial curve]",–
CCOc1ccc(S(=O)(=O)Nc2ccccc2C(=O)N/N=C/c2c(OC)ccc3ccccc23)cc1,–,inactive: -27.8%
CCn1ncc(/C=N\NC(=O)c2cc(-c3ccc(C)cc3C)nc3ccccc23)c1C,"inconclusive [inhibitor, single point]",–
O=c1c2ccccc2sc2c(CO)ccc(NCCN3CCCCC3)c12,active: 0.92 µM,–
O=C(O)Cn1nc(-c2ccccc2)cc1-c1ccccc1,–,inactive: 8.18%
c1ccc(C(Cc2nc(-c3cccnc3)no2)c2ccccc2)cc1,"inconclusive [inhibitor, partial curve, poor fit]",–
CCCc1nc2ccc(C)cn2c1Cc1cccc(Cl)c1,active: 16.4 µM,–
CC(C)(C)c1[nH]nc2c1C(Cc1ccccc1)C(C#N)=C(N)O2 (configuration not stated),"inconclusive [inhibitor, single point]",–
COc1ccc(NC(=O)Cn2nc(SC)c(S(=O)(=O)c3ccc(C)cc3)c2N)cc1OC,–,inactive: -22.2%
O=C(Nc1nnc(-c2cccs2)o1)c1cc(-c2ccccc2)nc2ccccc12,active: 14.6 µM,–
O=[N+]([O-])c1ccc(N2CCN(S(=O)(=O)c3ccc(Cl)cc3)CC2)cc1NCc1cccnc1,"inconclusive [inhibitor, partial curve, poor fit]",–
COc1ccc(-n2nc(C(=O)NCCCOC(C)C)c3c4ccccc4n(C)c3c2=O)cc1,–,inactive: -29.9%
COc1ccc(OC)c(N(C(=O)c2ccco2)C(C(=O)NC2CCCC2)c2cc(OC)c(OC)c(OC)c2)c1 (configuration not stated),"inconclusive [inhibitor, partial curve]",–
Cc1cc2cc(C(c3nnnn3C(C)(C)C)N(Cc3ccco3)CC3CCCO3)c(=O)[nH]c2cc1C (configuration not stated),"inconclusive [inhibitor, single point]",–
